Test results: PubChem BioAssay (Tox21)
“And” between values parts separate entries of the source, which are not always exact repeats. Equal values may be shown once. Inconclusive results, whose numbers are uncertain, are shown with a selection of clear calls. For part of these data: Where the call is inconclusive, the potency comes from a doubtful curve fit. The source made the active and inactive calls. Unless noted, the call rests on the fitted dose curve; in most records, active means well fitted curve in the direction sought with a large enough effect in the repeat runs; inconclusive means weak or mixed curves; inactive means no such curve, though single readings can be large; an effect the other way counts as inactive or inconclusive.

Tests used:
[1] = qHTS assay to identify small molecule that activate the aryl hydrocarbon receptor (AhR) signaling pathway - cell viability counter screen (AID 743086); further: potency means the concentration at half of the fitted maximal effect; nearly all actives have a fitted effect of over 45% in size
Summary of the method: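 HepG2-AhR-luc (HG2L7.5c1) cells, 4000/well, treated 24 h at 37 C with compound; viability measured as CellTiter-Fluor fluorescence after 30 min in the same wells as the luciferase read.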

[2] = biological target: Peroxisome proliferator-activated receptor gamma (Homo sapiens) (UniProt P37231); assay: qHTS assay to identify small molecule antagonists of the peroxisome proliferator-activated receptor gamma (PPARg) signaling pathway (AID 743191; calls by dose curve; further: potency means the concentration at half of the fitted maximal effect; nearly all actives have a fitted effect of over 30% in size); conditions: HEK293H PPARg-UAS-bla, beta-lactamase ratio, antagonist, 17 h; ratio activity, negative = inhibition: at 62.6 µM (top of the series) unless noted
Summary of the method: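 GeneBLAzer PPARg UAS-bla HEK293H cells, 5 h post-plating, exposed to compounds 17 h at 37C. LiveBLAzer B/G FRET substrate added for 1 h at room temperature; beta-lactamase reporter read by fluorescence intensity.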

[3] = qHTS assay to identify small molecule antagonists of the peroxisome proliferator-activated receptor gamma (PPARg) signaling pathway - cell viability counter screen (AID 743194); conditions: PPARg-bla HEK293H viability, CellTiter-Glo luminescence, 17 h, co-treated with 50 nM rosiglitazone; activity change, negative = cytotoxicity: at 62.6 µM (top of the series) unless noted; further: potency means the concentration at half of the fitted maximal effect; nearly all actives have a fitted effect of over 55% in size
Summary of the method: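 Cytotoxicity counter screen in PPARg-bla HEK293H cells, same wells as reporter assay. Compounds plus 50 nM rosiglitazone (final) for 17 h at 37 C, then viability read by CellTiter-Glo luminescence.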

[4] = qHTS assay for small molecule agonists of the antioxidant response element (ARE) signaling pathway (AID 743202; active means well fitted activation curve with a large enough effect in the signal ratio in the repeat runs, not every such curve was filed as active; inconclusive means weak or mixed curves, or effect the other way; inactive means no such curve, though single readings can be large or run the other way; the % refers to the signal ratio; further: potency means the concentration at half of the fitted maximal effect); conditions: HepG2 ARE-bla reporter, beta-lactamase FRET, 16 h; activation: at 73.3 µM (top of the series) unless noted
Summary of the method: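 HepG2 ARE-bla reporter line, 2,000 cells/well; 5 h preincubation 37 C/5% CO2; compound (DMSO) 16 h 37 C; B/G FRET substrate 2 h RT; fluorescence intensity.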

[5] = qHTS assay for small molecule agonists of the antioxidant response element (ARE) signaling pathway - cell viability counter screen (AID 743203; calls by dose curve; further: potency means the concentration at half of the fitted maximal effect; nearly all actives have a fitted effect of over 55% in size); conditions: ARE-bla HepG2 viability, CellTiter-Glo luminescence, 16 h; viability change, negative = cytotoxic: at 73.3 µM (top of the series)
Summary of the method: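 Viability counter screen: CellTiter-Glo luminescence, read after 30 min at room temperature, in ARE-bla HepG2 wells. Compound exposure lasted 16 h at 37C/5% CO2, following a 5 h pre-incubation of the cells after plating.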

[6] = qHTS assay to identify small molecule antagonists of the peroxisome proliferator-activated receptor delta (PPARd) signaling pathway - cell viability counter screen (AID 743213); conditions: PPARd-bla HEK293H viability, CellTiter-Glo luminescence, 17 h; viability change, negative = cytotoxic: at 62 µM (top of the series) unless noted; further: potency means the concentration at half of the fitted maximal effect; nearly all actives have a fitted effect of over 50% in size
Summary of the method: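 CellTiter-Glo was added to PPARd-bla HEK293H wells following 17 h compound treatment in the presence of 300 nM L165041. Luminescence was recorded after 30 min at room temperature.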

[7] = biological target: Peroxisome proliferator-activated receptor delta (Homo sapiens) (UniProt Q03181); assay: qHTS assay to identify small molecule antagonists of the peroxisome proliferator-activated receptor delta (PPARd) signaling pathway (AID 743215; active means well fitted inhibition curve with a large enough effect in the signal ratio in the repeat runs, not every such curve was filed as active; inconclusive means weak or mixed curves, or effect the other way; inactive means no such curve, though single readings can be large or run the other way; the % refers to the signal ratio;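 further: cells stimulated with agonist L165041 at 300 nM final during compound exposure; on the % scale 0 is the no-effect control and ±100 the full control effect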); conditions: HEK293H PPARd-UAS-bla, beta-lactamase FRET ratio, antagonist, 17 h; ratio activity, negative = inhibition: at 62 µM (top of the series) unless noted
Summary of the method: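 Agonist L165041 (300 nM final) added with compound to PPARd-bla HEK293H UAS-bla reporter cells; 17 h incubation at 37 C. Read-out: LiveBLAzer FRET substrate, 2 h at room temperature, fluorescence intensity.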

[8] = biological target: Bile acid receptor (Homo sapiens) (UniProt Q96RI1); assay: qHTS assay to identify small molecule antagonists of the farnesoid-X-receptor (FXR) signaling pathway (AID 743217; active means well fitted inhibition curve with a large enough effect in the signal ratio in the repeat runs, not every such curve was filed as active; inconclusive means weak or mixed curves, or effect the other way; inactive means no such curve, though single readings can be large or run the other way; the % refers to the signal ratio; further: potency means the concentration at half of the fitted maximal effect); conditions: HEK293T FXR-UAS-bla, beta-lactamase ratio, CDCA-stimulated, 16 h; activity change, negative = inhibition: at 62.6 µM (top of the series) unless noted
Summary of the method: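 Antagonist mode: chenodeoxycholic acid at 50 uM final stimulates a UAS-driven beta-lactamase reporter in HEK 293T FXR-bla cells during 16 h, 37C compound exposure. Read-out is FRET substrate fluorescence after 2 h at room temperature.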

[9] = qHTS assay to identify small molecule agonists of the farnesoid-X-receptor (FXR) signaling pathway - cell viability counter screen (AID 743218); conditions: FXR-bla HEK293T viability, CellTiter-Glo luminescence, 16 h; viability change, negative = cytotoxic: at 62.6 µM (top of the series) unless noted; further: potency means the concentration at half of the fitted maximal effect; nearly all actives have a fitted effect of over 45% in size
Summary of the method: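 Viability counter screen in the same wells: CellTiter-Glo luminescence, 30 min room-temperature incubation, measured after the beta-lactamase read. Cells were GeneBLAzer FXR-UAS-bla HEK 293T, compound-treated 16 h at 37C.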

[10] = biological target: Bile acid receptor (Homo sapiens) (UniProt Q96RI1); assay: qHTS assay to identify small molecule agonists of the farnesoid-X-receptor (FXR) signaling pathway (AID 743220; active means well fitted activation curve with a large enough effect in the signal ratio in the repeat runs, not every such curve was filed as active; inconclusive means weak or mixed curves, or effect the other way; the % refers to the signal ratio; further: potency means the concentration at half of the fitted maximal effect); conditions: HEK293T FXR-UAS-bla, beta-lactamase FRET ratio, 16 h; activation: at 62.6 µM (top of the series) unless noted
Summary of the method: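 FXR-UAS-bla HEK 293T cells carrying a UAS-driven beta-lactamase reporter were plated for 5 h at 37C/5% CO2, then exposed to DMSO-dissolved Tox21 10K compounds for 16 h at 37C. A LiveBLAzer B/G FRET substrate was loaded for 2 h at room temperature before fluorescence reading.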

[11] = qHTS assay to identify small molecule antagonists of the farnesoid-X-receptor (FXR) signaling pathway - cell viability counter screen (AID 743221; active means well fitted cell-killing curve with a large enough effect in the repeat runs, not every such curve was filed as active; inconclusive means weak or mixed curves, or effect the other way; inactive means no such curve, though single readings can be large or run the other way; further: potency means the concentration at half of the fitted maximal effect; nearly all actives have a fitted effect of over 50% in size); conditions: FXR-bla HEK293T viability, CellTiter-Glo luminescence, 16 h; activity change, negative = cytotoxicity: at 62.6 µM (top of the series)
Summary of the method: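 Cytotoxicity counter screen run in the FXR-bla reporter wells: HEK 293T cells exposed to compound with 50 uM (final) chenodeoxycholic acid for 16 h, 37 C, then viability measured by CellTiter-Glo luminescence after 30 min, room temperature.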

[12] = biological target: Vitamin D3 receptor (Homo sapiens) (UniProt P11473); assay: qHTS assay to identify small molecule agonists of the vitamin D receptor (VDR) signaling pathway (AID 743222; calls by dose curve; further: on the % scale 0 is the no-effect control and ±100 the full control effect); conditions: HEK293T VDR-UAS-bla, beta-lactamase FRET ratio, 16 h; activation: at 63.5 µM (top of the series) unless noted
Summary of the method: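 Agonist mode, beta-lactamase reporter: fluorescence from LiveBLAzer B/G FRET substrate (2 h, room temperature) read after 16 h compound treatment at 37 C of VDR-bla cells, which were pre-incubated 4 h after seeding.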

[13] = biological target: Vitamin D3 receptor (Homo sapiens) (UniProt P11473); assay: qHTS assay to identify small molecule antagonists of the vitamin D receptor (VDR) signaling pathway (AID 743223; active means well fitted inhibition curve with a large enough effect in the signal ratio in the repeat runs, not every such curve was filed as active; inconclusive means weak or mixed curves, or effect the other way; inactive means no such curve, though single readings can be large or run the other way; the % refers to the signal ratio; further: on the % scale 0 is the no-effect control and ±100 the full control effect); conditions: VDR-UAS-bla HEK293T, beta-lactamase FRET ratio, 16 h; activity change, negative = inhibition: at 61 µM (top of the series) unless noted
Summary of the method: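 Antagonist mode: compound added to VDR-bla cells alongside agonist 1alpha,25-dihydroxyvitamin D3 (3 nM final), incubation 16 h at 37C. Read-out is LiveBLAzer FRET fluorescence, 2 h at room temperature.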

[14] = qHTS assay to identify small molecule agonists of the vitamin D receptor (VDR) signaling pathway - cell viability counter screen (AID 743224); conditions: VDR-bla HEK293T viability, CellTiter-Glo luminescence, 16 h; activity change, negative = cytotoxicity: at 62.6 µM (top of the series) unless noted; further: potency means the concentration at half of the fitted maximal effect; nearly all actives have a fitted effect of over 50% in size
Summary of the method: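 Counter screen run in the same wells as the VDR-bla reporter assay: CellTiter-Glo luminescence, 30 min at room temperature, after 16 h compound treatment at 37C of cells pre-plated for 4 h.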

[15] = qHTS assay to identify small molecule antagonists of the vitamin D receptor (VDR) signaling pathway - cell viability counter screen (AID 743225); conditions: VDR-bla HEK293T viability, CellTiter-Glo luminescence, 16 h; viability change, negative = cytotoxic: at 61 µM (top of the series) unless noted; further: potency means the concentration at half of the fitted maximal effect; nearly all actives have a fitted effect of over 50% in size
Summary of the method: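 Cytotoxicity counter screen read by CellTiter-Glo luminescence (30 min, room temperature) in the same wells as the VDR-bla antagonist readout. HEK 293T VDR-UAS-bla cells had 16 h at 37C with compound and 3 nM (final) 1-alpha,25-dihydroxyvitamin D3, then 2 h with FRET substrate.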

[16] = biological target: Peroxisome proliferator-activated receptor gamma (Homo sapiens) (UniProt P37231); assay: qHTS assay to identify small molecule agonists of the peroxisome proliferator-activated receptor gamma (PPARg) signaling pathway (AID 743094; active means well fitted activation curve with a large enough effect in the signal ratio in the repeat runs, not every such curve was filed as active; inconclusive means weak or mixed curves, or effect the other way; inactive means no such curve, though single readings can be large or run the other way; the % refers to the signal ratio; further: potency means the concentration at half of the fitted maximal effect); conditions: HEK293H PPARg-UAS-bla, beta-lactamase FRET ratio, 17 h; activation: at 57 µM (top of the series) unless noted
Summary of the method: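 Agonist activity was taken from a beta-lactamase reporter (FRET substrate, 1 h at room temperature) in HEK293H cells carrying a PPARg UAS-bla construct. Compounds in DMSO were incubated 17 h at 37C after a 5 h cell pre-incubation.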

[17] = qHTS assay for small molecule activators of the heat shock response signaling pathway - cell viability counter screen (AID 743209); conditions: HSE-bla HeLa viability, CellTiter-Glo luminescence, 5 h; activity change, negative = cytotoxicity: at 62.6 µM (top of the series) unless noted
Summary of the method: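 Cytotoxicity counter screen run in the same wells as the heat-shock bla reporter assay: HeLa HSE-bla cells, 5 h compound exposure at 37 C, viability read by CellTiter-Glo luminescence.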

[18] = biological target: Peroxisome proliferator-activated receptor delta (Homo sapiens) (UniProt Q03181); assay: qHTS assay to identify small molecule agonists of the peroxisome proliferator-activated receptor delta (PPARd) signaling pathway (AID 743212; calls by dose curve; further: potency means the concentration at half of the fitted maximal effect); conditions: HEK293H PPARd-UAS-bla, beta-lactamase FRET ratio, 17 h; activation: at 62.6 µM (top of the series) unless noted
Summary of the method: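 Read-out: beta-lactamase FRET fluorescence after 2 h room-temperature incubation with LiveBLAzer B/G substrate. Cells were HEK293H carrying a UAS-bla reporter for PPARd, treated at 37 C with DMSO-dissolved compounds.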
Tags describe the fitted curve by direction and shape or compound fluorescence and quenching.

Sequence of UniProt Q03181 (Q03181 whole entry, looked up): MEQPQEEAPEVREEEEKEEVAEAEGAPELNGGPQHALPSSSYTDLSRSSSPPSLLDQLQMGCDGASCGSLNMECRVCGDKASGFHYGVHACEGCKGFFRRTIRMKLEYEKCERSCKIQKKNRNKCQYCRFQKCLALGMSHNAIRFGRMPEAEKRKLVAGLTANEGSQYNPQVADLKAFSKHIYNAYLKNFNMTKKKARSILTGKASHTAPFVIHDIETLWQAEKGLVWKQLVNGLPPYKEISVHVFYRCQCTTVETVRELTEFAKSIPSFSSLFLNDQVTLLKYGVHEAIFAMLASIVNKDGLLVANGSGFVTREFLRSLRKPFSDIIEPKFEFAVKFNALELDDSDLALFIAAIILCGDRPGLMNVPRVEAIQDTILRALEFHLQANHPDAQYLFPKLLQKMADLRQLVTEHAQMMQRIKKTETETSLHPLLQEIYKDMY
Sequence of UniProt Q96RI1 (Q96RI1 whole entry, looked up): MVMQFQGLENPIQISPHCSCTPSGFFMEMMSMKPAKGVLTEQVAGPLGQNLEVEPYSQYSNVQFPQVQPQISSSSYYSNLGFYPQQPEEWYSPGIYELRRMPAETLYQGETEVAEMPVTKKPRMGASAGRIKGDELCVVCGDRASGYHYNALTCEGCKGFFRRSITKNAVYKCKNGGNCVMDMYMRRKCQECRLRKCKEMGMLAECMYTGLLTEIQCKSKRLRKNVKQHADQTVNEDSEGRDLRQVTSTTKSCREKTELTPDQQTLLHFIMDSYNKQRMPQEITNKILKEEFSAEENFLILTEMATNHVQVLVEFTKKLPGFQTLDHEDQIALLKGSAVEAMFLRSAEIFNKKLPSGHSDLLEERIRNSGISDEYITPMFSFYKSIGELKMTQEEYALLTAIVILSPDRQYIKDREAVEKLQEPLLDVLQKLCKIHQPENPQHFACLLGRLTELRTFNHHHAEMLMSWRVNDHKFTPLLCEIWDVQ
Sequence of UniProt P37231 (P37231 whole entry, looked up): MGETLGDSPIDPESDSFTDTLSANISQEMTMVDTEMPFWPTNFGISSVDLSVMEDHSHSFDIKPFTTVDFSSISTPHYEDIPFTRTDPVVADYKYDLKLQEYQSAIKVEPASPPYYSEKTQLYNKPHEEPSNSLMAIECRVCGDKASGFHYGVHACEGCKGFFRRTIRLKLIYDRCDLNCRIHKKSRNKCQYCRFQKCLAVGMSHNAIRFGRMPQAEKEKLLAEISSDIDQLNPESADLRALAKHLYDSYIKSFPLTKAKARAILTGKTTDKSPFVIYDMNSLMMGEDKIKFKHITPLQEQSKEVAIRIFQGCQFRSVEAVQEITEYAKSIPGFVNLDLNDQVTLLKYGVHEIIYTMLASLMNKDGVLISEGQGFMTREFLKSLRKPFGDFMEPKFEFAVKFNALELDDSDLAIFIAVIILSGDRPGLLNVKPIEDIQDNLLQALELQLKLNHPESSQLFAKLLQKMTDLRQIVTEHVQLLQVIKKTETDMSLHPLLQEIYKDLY
Sequence of UniProt P11473 (P11473 whole entry, looked up): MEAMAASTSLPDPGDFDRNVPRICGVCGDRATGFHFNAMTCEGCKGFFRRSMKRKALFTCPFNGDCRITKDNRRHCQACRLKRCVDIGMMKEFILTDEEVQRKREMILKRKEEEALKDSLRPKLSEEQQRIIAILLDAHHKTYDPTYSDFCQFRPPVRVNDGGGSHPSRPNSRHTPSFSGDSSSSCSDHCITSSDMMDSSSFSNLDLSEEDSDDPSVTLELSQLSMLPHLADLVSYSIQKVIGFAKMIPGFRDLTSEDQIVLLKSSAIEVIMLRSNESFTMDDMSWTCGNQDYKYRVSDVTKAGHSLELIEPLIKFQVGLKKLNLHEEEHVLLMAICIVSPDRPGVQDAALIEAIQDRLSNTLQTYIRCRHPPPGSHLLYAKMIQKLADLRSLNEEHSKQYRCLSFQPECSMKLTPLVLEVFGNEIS

| Compound | Potency [1] | Potency [2] | Potency [3] | Potency [4] | Potency [5] | Potency [6] | ratio activity, negative = inhibition [7] | Potency [8] | Potency [9] | Potency [10] | Potency [11] | Potency [12] | activity change, negative = inhibition [13] | Potency [14] | Potency [15] | Potency [16] | Potency [17] | Potency [18] |
| --- | --- | --- | --- | --- | --- | --- | --- | --- | --- | --- | --- | --- | --- | --- | --- | --- | --- | --- |
| CN1CCN(CCCN2c3ccccc3Sc3ccc(Cl)cc32)CC1 | active: 23.7 µM | inconclusive: 33.5 µM [rising, single point] | inconclusive: 29.8 µM [cytotoxic, single point] | inconclusive: 33.5 µM | active: 29.8 µM | active: 26.6 µM | inconclusive: -48.9% | inconclusive: 29.8 µM [inhibitor, single point] | active: 26.6 µM | inconclusive: 23.7 µM [falling, single point] | active: 23.7 µM | inactive | inconclusive: -37.5% | inconclusive: 29.8 µM [cytotoxic, partial curve] | inconclusive: 23.9 µM [cytotoxic] | – | – | – |
| Cc1cc(OCCOCC[N+](C)(C)Cc2ccccc2)ccc1C(C)(C)CC(C)(C)C | active: 29.8 µM and active: 60.8 µM | inconclusive: 54.6 µM [cytotoxic, single point] and inconclusive: 21.1 µM [cytotoxic, partial curve] | active: 15.4 µM and active: 29.8 µM | – | – | active: 19.4 µM and inconclusive: 18.8 µM [cytotoxic] | – | active: 54.6 µM and inconclusive: 33.5 µM [partial curve, poor fit] | active: 17.3 µM and active: 18.8 µM | inconclusive: 61.3 µM [cytotoxic] | active: 54.6 µM and active: 29.8 µM | – | – | – | active: 13.7 µM and active: 19 µM | inconclusive: 30.1 µM [cytotoxic, single point] | inconclusive: 33.5 µM [cytotoxic, single point] | inconclusive: 61.3 µM [single point] and inconclusive: 33.5 µM [single point] |
